Assay results taken from article PMC6872946 (Growth factors (Chur, Switzerland), 2019).

Target: the molecule itself
Assay: non-reducing SDS-PAGE and immunoblot

B1: full-length PDGF-C with a C-terminal myc tag (FL-PDGF-C-myc) (natural protein)
chain: not shown
  stoichiometry N: 2
